# Data published in the supplement of paper PMC4166925.
# ± gives the standard deviation of the averaged measurements. Over roughly 33,000 sequences, “E-score (dimensionless, -0.5 to 0.5)” has its median near -0.046; the highest 2% begin near 0.36. The list shows a part of the results.
# Tested on: T1, SpTbr T-box DNA-binding domain (GST fusion)
# T1 sequence: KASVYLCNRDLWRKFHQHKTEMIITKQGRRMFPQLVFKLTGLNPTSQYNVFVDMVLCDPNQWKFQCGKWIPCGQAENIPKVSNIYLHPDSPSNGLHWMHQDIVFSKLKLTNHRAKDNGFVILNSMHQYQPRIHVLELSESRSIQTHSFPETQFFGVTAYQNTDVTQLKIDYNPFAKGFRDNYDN
# Test: PBM E-score of 8-mer (E-score (dimensionless, -0.5 to 0.5)); Tbr is Tbrain of the sea star Patiria miniata (Pm) or the sea urchin Strongylocentrotus purpuratus (Sp); higher = stronger binding preference; most listed sequences are background and not binding sites
# Conditions: the construct has about 5 more residues each side
# In short: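 Using the Universal PBM Analysis Suite, every ungapped 8-mer received an enrichment E-score averaged over duplicate arrays. Probe intensities came from double-stranded Universal Agilent oligonucleotide arrays incubated with 200 nM GST-fused Tbr T-box DNA-binding domain in PBS (pH 7.5). That protein was expressed in BL21 E. coli at 20 °C and purified by glutathione affinity chromatography.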
row,Sequence,PBM E-score of 8-mer
1,CCGGACCC,-0.0146 ± 0.023
2,AAGCGCGT,0.202 ± 0.033
3,AAGAGTAG,-0.176 ± 0.052
4,ACATTCGC,0.311 ± 0.0065
5,ACCAACGT,-0.158 ± 0.022
6,CGTGAAGC,0.287 ± 0.031
7,TGAGGAAA,0.0953 ± 0.022
8,AAGTGGGT,0.122 ± 0.035
9,CCCTGTCG,-0.00439 ± 0.04
10,AGCCTAAA,-0.0716 ± 0.1
11,ATCAGGTA,-0.128 ± 0.008
12,AAGTGGAC,-0.098 ± 0.026
13,ATAGTGAG,0.231 ± 0.078
14,CACATGCA,0.127 ± 0.018
15,ACATGCGC,0.108 ± 0.049
16,AAGGGGAC,-0.175 ± 0.0059
17,TGCTATAA,-0.0597 ± 0.083
18,AATAAATT,-0.0273 ± 0.041
19,GTAATCTA,-0.178 ± 0.016
20,CACCATGG,0.13 ± 0.043
21,ACGCGCTC,0.0372 ± 0.028
22,ATCTACAA,-0.197 ± 0.025
23,AAAAGATC,-0.214 ± 0.097
24,TGAAGTAA,-0.157 ± 0.065
25,ACTTAACC,-0.0866 ± 0.049

row,Sequence,PBM E-score of 8-mer
1,GAGCTCCC,-0.06 ± 0.0044
2,ATCAGGAG,-0.129 ± 0.067
3,AGCGCCAC,0.297 ± 0.03
4,AGCTTCAC,0.161 ± 0.013
5,CTTATTCC,-0.209 ± 0.031
6,CGGCGACC,0.0143 ± 0.11
7,TACCTGGA,-0.0653 ± 0.076
8,ATACAGAC,-0.0432 ± 0.019
9,ATAGAGAC,-0.217 ± 0.028
10,GTAGATCA,-0.274 ± 0.075
11,GAGATAAC,-0.0138 ± 0.0051
12,GTAAGTAA,0.0966 ± 0.012
13,CGAGTAGC,0.0635 ± 0.0055
14,CGGTCATA,-0.0666 ± 0.019
15,AAGCACGT,0.0302 ± 0.0054
16,TAGCAAGA,-0.115 ± 0.072
17,GCTACTAC,0.013 ± 0.035
18,ATTTGGAC,-0.184 ± 0.022
19,GCAATCAA,0.0342 ± 0.047
20,CCGCGACA,0.242 ± 0.019
21,ATTACCCC,-0.304 ± 0.11
22,TACAATGA,-0.21 ± 0.013
23,GGTGAGGA,0.384 ± 0.0073
24,CTAAATAA,-0.0245 ± 0.099
25,AATCGCCC,-0.09 ± 0.0098

row,Sequence,PBM E-score of 8-mer
1,AGGATCAT,-0.109 ± 0.12
2,GCGGGGTA,-0.0031 ± 0.0049
3,AGCCCGGG,-0.244 ± 0.011
4,AATCCAGA,-0.152 ± 0.048
5,ATGCGGCG,-0.00773 ± 0.061
6,GTCCTGAA,-0.277 ± 0.031
7,AACTCGTG,0.229 ± 0.0073
8,AAACTGTT,0.174 ± 0.053
9,AACATTCT,-0.0673 ± 0.08
10,CTGGACAC,0.024 ± 0.13
11,CAGAAGAA,-0.158 ± 0.00076
12,TCGGACGA,-0.0842 ± 0.0028
13,ACTAAAAT,-0.019 ± 0.0044
14,AGCAACTG,0.132 ± 0.047
15,CTATTCCA,0.00515 ± 0.045
16,ATAGGGAA,-0.286 ± 0.039
17,GGCACTCA,0.135 ± 0.024
18,ATGGCTCG,-0.0192 ± 0.074
19,CAGCATGC,-0.17 ± 0.14
20,CGACAAGA,0.2 ± 0.016
21,CTCACTCA,0.153 ± 0.034
22,TGCGCGCA,0.1609 ± 0.00059
23,ATCCTTCC,-0.1921 ± 0.0014
24,AGAACTAC,-0.085 ± 0.031
25,CACCGCTG,0.127 ± 0.081

row,Sequence,PBM E-score of 8-mer
1,GAAGCCAA,-0.165 ± 0.085
2,CGCAAAGA,0.0425 ± 0.05
3,ATTAATGC,-0.244 ± 0.046
4,GAATGCAC,-0.154 ± 0.03
5,ACCCGCTC,-0.128 ± 0.14
6,ATGGATCG,-0.115 ± 0.082
7,GCTGCTCA,-0.158 ± 0.025
8,CACAAGAG,0.0417 ± 0.047
9,CTCGACGC,0.18 ± 0.047
10,TAAGATTA,-0.199 ± 0.022
11,CCAGATGG,-0.0803 ± 0.011
12,CCATCTAC,-0.194 ± 0.046
13,CTGTACAC,0.0318 ± 0.018
14,ACGTTCAC,0.369 ± 0.0053
15,ACTATAGC,0.143 ± 0.014
16,CGGAAATC,-0.153 ± 0.031
17,CATAGAGA,-0.161 ± 0.012
18,CCGGACAG,-0.191 ± 0.035
19,ACCACCGC,-0.0528 ± 0.033
20,CAATTACA,0.0525 ± 0.064
21,AATGGCAA,0.127 ± 0.015
22,AGACGCTA,-0.00794 ± 0.01
23,CCCGCCTC,0.14 ± 0.11
24,CCCGGAAG,-0.115 ± 0.043
25,GGTAGGAC,-0.159 ± 0.035

row,Sequence,PBM E-score of 8-mer
1,AGGTCACG,0.208 ± 0.032
2,ATATTAGC,-0.0698 ± 0.021
3,ATAGCGGC,-0.0064 ± 0.035
4,CCTAGCAC,0.257 ± 0.016
5,AATGACAC,0.3799 ± 0.0026
6,GGGCCGGA,-0.22 ± 0.022
7,GGTGCAAA,0.3907 ± 0.0034
8,ATACCAGA,-0.23 ± 0.035
9,ACCAGACG,-0.138 ± 0.13
10,AATCAGGC,-0.107 ± 0.036
11,GTTAAAGA,-0.133 ± 0.028
12,ACCCTCCT,0.0378 ± 0.0066
13,GATTGAGC,-0.103 ± 0.009
14,CAGTAGCA,0.0713 ± 0.055
15,ACGTACGA,-0.153 ± 0.03
16,ATGGCGAG,0.152 ± 0.005
17,CAGCCGTA,-0.195 ± 0.048
18,AGTATGGA,-0.236 ± 0.03
19,CACGATGA,0.139 ± 0.018
20,AGCCCGTG,-0.141 ± 0.034
21,ACGTGTCC,0.0769 ± 0.048
22,CTAGCTGA,-0.0136 ± 0.11
23,AGTTATCC,-0.17 ± 0.075
24,TGCGGGAA,-0.111 ± 0.031
25,GCTCAACC,-0.204 ± 0.025

row,Sequence,PBM E-score of 8-mer
1,GAAATTGA,-0.122 ± 0.096
2,AGTAAGAA,-0.154 ± 0.043
3,AAGAGAAA,-0.258 ± 0.023
4,GCATTCTA,-0.293 ± 0.06
5,CGAAAGGA,0.0114 ± 0.0063
6,AAAGCACG,0.0696 ± 0.013
7,CACCCCCA,0.246 ± 0.028
8,AAGACCTG,-0.0573 ± 0.036
9,AAAGCGAG,-0.044 ± 0.048
10,CCAAACAC,0.287 ± 0.023
11,GCGTGGGA,0.00128 ± 0.029
12,AACCGCTG,0.0391 ± 0.007
13,AATACCAG,-0.214 ± 0.013
14,AAAGCAAT,-0.354 ± 0.069
15,AACACAAC,0.197 ± 0.031
16,TGTCCTAA,-0.217 ± 0.01
17,AAATACCA,-0.147 ± 0.024
18,GAAGCTAC,-0.0991 ± 0.033
19,AGAGTATC,-0.133 ± 0.0068
20,GGCTTACA,-0.17 ± 0.044
21,TACGTATA,-0.0478 ± 0.04
22,AAGGGACA,-0.0762 ± 0.002
23,GGATGGCA,-0.14 ± 0.021
24,GGGGCGAA,-0.12 ± 0.03
25,ACTGTGCG,0.112 ± 0.005

row,Sequence,PBM E-score of 8-mer
1,ATTGTGTG,0.279 ± 0.0062
2,ACCTCCGA,0.168 ± 0.02
3,CCCACACG,0.15 ± 0.1
4,AGGTTTTG,-0.0401 ± 0.02
5,CACCCCCG,0.234 ± 0.018
6,ACCGGTGA,0.145 ± 0.022
7,GCCCTCCA,-0.1424 ± 0.0007
8,ATCTACCC,-0.264 ± 0.03
9,CCATTACG,-0.081 ± 0.0088
10,ACAACTCT,0.183 ± 0.002
11,ACAACTGA,0.0471 ± 0.052
12,ATGTTGCG,0.15 ± 0.0049
13,CATACTAG,-0.107 ± 0.01
14,AGATCAAC,-0.203 ± 0.047
15,AGGTACCA,-0.104 ± 0.075
16,ATCTAAGC,-0.107 ± 0.031
17,ATCCAACA,0.125 ± 0.021
18,CCTGTATC,-0.0503 ± 0.015
19,GCCGAGTA,-0.0238 ± 0.038
20,AAGGGAAA,-0.289 ± 0.05
21,CCGAAGCG,0.0241 ± 0.018
22,ACGAGGCC,-0.274 ± 0.043
